We go through 63 cell lines from the supplement of paper PMC4967469.

As usually defined, the IC50 is the concentration that gives 50% inhibition.

IC50 is the fitted dose that halves viability relative to control wells, and lower means more sensitive; fits outside the tested doses are given as limits. AUC sums up the same curve from the lowest dose to the 256-fold higher top dose: 1 means no effect, lower means more sensitive. Any top dose called inferred is not printed in the source and was worked back from the curve model.

Compound in the test: N.N.[Cl][Pt][Cl] [Cisplatin]
The test is described as follows: Viability of human cancer cell lines after 72 h of drug (GDSC screen). The conditions noted are these: top dose inferred. On the procedure:
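Human cancer cell lines in 384-well plates, medium with 10% serum, drug for 72 h over a 256-fold dose range (nine 2-fold or five 4-fold steps up to the top dose). Adherent lines were fixed and stained with the nucleic acid dye Syto60, suspension lines read with resazurin; signal relative to control wells, capped at 0 and 100%. One two-parameter sigmoid per drug and line, fitted in a mixed model over all curves with the slope shared within a line.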
“MOLT-13 (T-cell lymphoblastic leukaemia, suspension, top dose 10 µM)”: the AUC was 0.988 and the half-maximal inhibitory concentration (IC50) is above 10 µM.
The matching figures for “MOLT-16 (T-cell lymphoblastic leukaemia, suspension, top dose 10 µM)”: 0.828 and 4.56 µM.
Turning to “MONO-MAC-6 (acute myeloid leukaemia, suspension, top dose 10 µM)”, the AUC came out at 0.927 and the IC50 is above 10 µM.
As to “MPP-89 (mesothelioma, adherent, top dose 10 µM)”, the AUC was 0.798 and the half-inhibitory concentration (IC50) turned out to be 6.51 µM.
For “MRK-nu-1 (breast, suspension, top dose 10 µM)” the same measures were 0.989 and above 10 µM.
For “MS751 (cervix, adherent, top dose 10 µM)” the same measures were 0.9 and above 10 µM.
For “MS-1 (small cell lung carcinoma, suspension, top dose 10 µM)” the same measures were 0.988 and above 10 µM.
Take “MSTO-211H (mesothelioma, adherent, top dose 10 µM)”: the AUC was 0.945 and the IC50 was above 10 µM.
The matching figures for “MV-4-11 (leukaemia, suspension, top dose 10 µM)”: 0.8 and 3.88 µM.
Take “MY-M12 (leukaemia, suspension, top dose 10 µM)”: the AUC is 0.967 and the IC50 was above 10 µM.
As to “MZ1-PC (pancreas, adherent, top dose 10 µM)”, the AUC was found to be 0.887 and the IC50 was above 10 µM.
With “MZ2-MEL (melanoma, adherent, top dose 10 µM)”, the AUC stood at 0.644 and the half-inhibitory concentration (IC50) stood at 1.68 µM.
For “Mewo (melanoma, adherent, top dose 10 µM)” the same measures were 0.874 and above 10 µM.
For “Mo-T (hairy cell leukaemia, suspension, top dose 10 µM)” the same measures were 0.81 and 5.41 µM.
Take “NALM-6 (B-cell leukaemia, suspension, top dose 10 µM)”: the AUC amounted to 0.901 and the IC50 was determined as 9.2 µM.
For “NAMALWA (Burkitt lymphoma, suspension, top dose 10 µM)” the same measures were 0.781 and 3.46 µM.
Turning to “NB1 (neuroblastoma, semi-adherent, top dose 10 µM)”, the AUC is 0.849 and the IC50 is 8.75 µM.
For the cell line “NB5 (neuroblastoma, adherent, top dose 10 µM)”, the AUC stood at 0.821 and the IC50 stood at 5.9 µM.
For “NB6 (neuroblastoma, adherent, top dose 10 µM)” the same measures were 0.971 and above 10 µM.
As to “NB10 (neuroblastoma, adherent, top dose 10 µM)”, the AUC came out at 0.812 and the IC50 is 5.19 µM.
In the case of “NB12 (neuroblastoma, adherent, top dose 10 µM)”, the AUC came out at 0.953 and the IC50 is above 10 µM.
For “NB13 (neuroblastoma, adherent, top dose 10 µM)” the same measures were 0.927 and above 10 µM.
For “NB14 (neuroblastoma, adherent, top dose 10 µM)” the same measures were 0.895 and above 10 µM.
As to “NB17 (neuroblastoma, adherent, top dose 10 µM)”, the AUC amounted to 0.928 and the IC50 was above 10 µM.
For “NB69 (neuroblastoma, adherent, top dose 10 µM)”, the AUC came to 0.864 and the IC50 amounted to 7.11 µM.
For “NB(TU)1-10 (neuroblastoma, adherent, top dose 10 µM)” the same measures were 0.968 and above 10 µM.
Consider “NB-4 (acute myeloid leukaemia, suspension, top dose 10 µM)”, for which the AUC amounted to 0.764 and the IC50 is 3.03 µM.
On to “NCC010 (kidney, adherent, top dose 10 µM)”, for which the AUC worked out at 0.914 and the IC50 is above 10 µM.
“NCC021 (kidney, adherent, top dose 10 µM)”: the AUC stood at 0.955 and the IC50 is above 10 µM.
The matching figures for “NCI-H23 (lung adenocarcinoma, adherent, top dose 10 µM)”: 0.819 and 5.62 µM.
On to “NCI-H28 (mesothelioma, adherent, top dose 10 µM)”, for which the AUC came out at 0.914 and the IC50 was above 10 µM.
Turning to “NCI-H64 (small cell lung carcinoma, suspension, top dose 6 µM)”, the AUC was 0.987 and the IC50 is above 6 µM.
As for “NCI-H69 (small cell lung carcinoma, suspension, top dose 10 µM)”, the AUC was 0.969 and the IC50 was above 10 µM.
As to “NCI-H82 (small cell lung carcinoma, suspension, top dose 10 µM)”, the AUC came out at 0.8 and the half-inhibitory concentration (IC50) stood at 4.54 µM.
Take “NCI-H146 (small cell lung carcinoma, suspension, top dose 6 µM)”: the AUC was 0.986 and the IC50 was above 6 µM.
Take “NCI-H187 (small cell lung carcinoma, suspension, top dose 10 µM)”: the AUC was 0.935 and the IC50 is above 10 µM.
For “NCI-H209 (small cell lung carcinoma, suspension, top dose 6 µM)” the same measures were 0.329 and 0.121 µM.
In the case of “NCI-H211 (small cell lung carcinoma, adherent, top dose 10 µM)”, the AUC stood at 0.945 and the IC50 was above 10 µM.
In the case of “NCI-H226 (lung squamous cell carcinoma, adherent, top dose 10 µM)”, the AUC turned out to be 0.949 and the half-maximal inhibitory concentration (IC50) is above 10 µM.
For “NCI-H292 (lung adenocarcinoma, adherent, top dose 10 µM)”, the AUC was 0.966 and the IC50 was above 10 µM.
The matching figures for “NCI-H322M (lung adenocarcinoma, suspension, top dose 10 µM)”: 0.963 and above 10 µM.
Turning to “NCI-H345 (small cell lung carcinoma, suspension, top dose 10 µM)”, the AUC amounted to 0.976 and the IC50 was above 10 µM.
The matching figures for “NCI-H358 (lung adenocarcinoma, adherent, top dose 10 µM)”: 0.939 and above 10 µM.
The matching figures for “NCI-H441 (lung adenocarcinoma, adherent, top dose 10 µM)”: 0.962 and above 10 µM.
For “NCI-H446 (small cell lung carcinoma, semi-adherent, top dose 10 µM)” the same measures were 0.965 and above 10 µM.
With “NCI-H460 (large cell lung carcinoma, adherent, top dose 10 µM)”, the AUC was 0.827 and the IC50 was 5.32 µM.
Turning to “NCI-H508 (large intestine, semi-adherent, top dose 10 µM)”, the AUC was 0.96 and the IC50 was above 10 µM.
On to “NCI-H510A (small cell lung carcinoma, semi-adherent, top dose 10 µM)”, for which the AUC was 0.923 and the IC50 was above 10 µM.
Consider “NCI-H524 (small cell lung carcinoma, suspension, top dose 10 µM)”, for which the AUC is 0.861 and the IC50 worked out at 7.02 µM.
For “NCI-H526 (small cell lung carcinoma, suspension, top dose 10 µM)” the same measures were 0.792 and 4.3 µM.
The matching figures for “NCI-H596 (lung adenocarcinoma, adherent, top dose 10 µM)”: 0.974 and above 10 µM.
For “NCI-H630 (large intestine, adherent, top dose 10 µM)” the same measures were 0.982 and above 10 µM.
Regarding “NCI-H647 (non-small cell lung carcinoma, adherent, top dose 10 µM)”, the AUC is 0.891 and the IC50 is above 10 µM.
For “NCI-H650 (lung adenocarcinoma, adherent, top dose 10 µM)” the same measures were 0.904 and above 10 µM.
For “NCI-H661 (large cell lung carcinoma, adherent, top dose 10 µM)” the same measures were 0.839 and 8.95 µM.
The matching figures for “NCI-H716 (large intestine, suspension, top dose 10 µM)”: 0.951 and above 10 µM.
Consider “NCI-H720 (lung carcinoid, suspension, top dose 10 µM)”, for which the AUC was found to be 0.975 and the IC50 is above 10 µM.
The matching figures for “NCI-H747 (large intestine, adherent, top dose 10 µM)”: 0.982 and above 10 µM.
For the cell line “NCI-H810 (large cell lung carcinoma, adherent, top dose 10 µM)”, the AUC turned out to be 0.964 and the IC50 was above 10 µM.
In the case of “NCI-H835 (lung carcinoid, suspension, top dose 10 µM)”, the AUC was found to be 0.981 and the 50% inhibitory concentration (IC50) was above 10 µM.
“NCI-H838 (lung adenocarcinoma, adherent, top dose 10 µM)”: the AUC was found to be 0.909 and the IC50 is above 10 µM.
As for “NCI-H841 (small cell lung carcinoma, adherent, top dose 10 µM)”, the AUC was 0.891 and the 50% inhibitory concentration (IC50) is above 10 µM.
The matching figures for “NCI-H847 (small cell lung carcinoma, adherent, top dose 10 µM)”: 0.993 and above 10 µM.
